The campaign covered roughly 48,000 compounds. About 450 (0.94%) were called active. Not shown: some 19% with an inconclusive outcome. The call rests on the fitted dose curve; in most records, active means well fitted inhibition curve with a large enough effect; inconclusive means small, poorly fitted or top-dose-only effect; inactive means no such curve, though single readings can be large or run the other way. Some of the results follow.

The experiment in a line: Primary qHTS for Identification of Small Molecule Inhibitors of Huntingtin Promoter Activity. Further: nearly all actives have a fitted effect of over 50% in size. The conditions noted are these: HEK293 HTT promoter firefly luciferase reporter (activity 0% = vehicle and -100% = no light), 24 h; series mostly up to 57.5 µM; activity change, negative = inhibition: at the top concentration. An outline of the steps:
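Quantitative HTS used concentration series of up to 57.5 uM final on HEK293 luciferase reporter cells, 24 h at 37 degrees C. Readout was Dual-Glo firefly luminescence.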
For orientation: In qHTS, concentration-response curves come from the screen itself.
On to `CCOC(=O)c1c(C)n(-c2ccccc2)c2ccc(OC(=O)c3ccccc3Cl)cc12`, for which the “activity change, negative = inhibition” value was inactive: -3.53%.

In the case of `CC(C)COc1ccc(C(=O)NCC2OCCc3ccccc32)cc1` (stereo not given), the “activity change, negative = inhibition” value was inactive: 0.233%. For the compound `CCOc1ccc(CCNC(=O)C2CCCN(c3nnc(C)c4c(C)n(-c5ccccc5)nc34)C2)cc1` (stereo not given), the “activity change, negative = inhibition” value is inactive: -21.8%. Turning to `NC(=O)c1c(NC(=O)c2noc3c2CCCC3)sc2c1CCCC2`, the “activity change, negative = inhibition” value is inactive: 83.9%. Take `COc1ccc2oc(=O)c(C(=O)NCCc3c(C)[nH]c4c(C)cccc34)cc2c1`: the “activity change, negative = inhibition” value was inactive: -2.63%. As for `COC(=O)c1cc(NC(=O)CCS(=O)(=O)c2cc(Br)cc3c2N(C(=O)C2CC2)CC3)cc(C(=O)OC)c1`, the “activity change, negative = inhibition” value was inactive: -7.86%. On to `CCOc1cc2[nH]c(=O)n(CCC(=O)N3CCN(c4cccc(Cl)c4)CC3)c(=O)c2cc1OCC`, for which the “activity change, negative = inhibition” value is inactive: -14.6%. `CCOC(=O)Cn1nc(C)c(NC(=O)COc2ccc(OC)cc2)c1C`: the “activity change, negative = inhibition” value is inactive: 12.3%. On to `CCn1c2ccccc2c2cc(NC(=O)COc3cc(C)c(Cl)c(C)c3)ccc21`, for which the “activity change, negative = inhibition” value was inactive: -5.78%. Next, `Cc1ccccc1C(=O)Nc1ccc(NC(=O)c2cccs2)cc1`: inactive: -6.76%; `CCOC(=O)c1c(C)oc2nc(C)nc(N3CCN(c4ccc(C)cc4C)CC3)c12`: inactive: -6.04%; `COc1ccc(C(=O)NCC(c2ccco2)S(=O)(=O)c2ccccc2)cc1` (stereo not given): inactive: 2.25%. For the compound `CC1(C)O[C@@H]2C[C@H]3[C@@H]4CCC5=CC(=O)C=C[C@]5(C)[C@@]4(F)[C@@H](O)C[C@]3(C)[C@]2(C(=O)CO)O1`, the “activity change, negative = inhibition” value is inactive: 0.143%.

Consider `CCCN(C(=O)C1CCN(S(=O)(=O)c2c(C)noc2/C=C/c2ccc(C)cc2)CC1)c1ccccc1F`, for which the “activity change, negative = inhibition” value was inactive: -24.8%. The figure for `CCN1CCOC(=O)C1CC(=O)Nc1ccccc1C(F)(F)F` (stereo not given) is inactive: -0.717%; for `Cc1cccc(NC(=O)C2CCC(CNS(=O)(=O)c3ccc4c(c3)CCCC(=O)N4)CC2)c1C` (stereo not given) it is inactive: -30.1%; for `CC(=O)c1ccc(NC(=O)c2cccc(NC(=O)N3CCSc4ncccc43)c2)cc1` it is inactive: -18.8%. Take `Cc1cc(C)cc(N(C)S(=O)(=O)c2nnc(NC(=O)COc3ccc(C)c(C)c3)s2)c1`: the “activity change, negative = inhibition” value was inactive: -13.3%. As to `CCOCCCNC(=O)c1c(NC(=O)Cc2coc3c(C)c(C)ccc23)sc2c1CCC2`, the “activity change, negative = inhibition” value was inactive: -28.9%. Next, `CCCN(Cc1cc2cc(C)ccc2[nH]c1=O)C(=O)c1cccc(Cl)c1`: inactive: -15.3%. `COc1cc(OC)c(NC(=O)COc2ccccc2-c2nnc(-c3ccccc3)o2)cc1Cl`: the “activity change, negative = inhibition” value was inactive: -24%.

Turning to `CCCCCCCCCCCCCCCCCCO`, the “activity change, negative = inhibition” value was inactive: 10.7%.

With `CCc1ccccc1Nc1nn2c(=O)c3ccc(C(=O)NCCc4ccccc4)cc3nc2s1`, the “activity change, negative = inhibition” value is inactive: -27%.

For `Cc1cccc(C(=O)NC2(C(F)(F)F)N=C(c3ccccc3)N(Cc3ccccc3)C2=O)c1` (stereo not given), the “activity change, negative = inhibition” value is inactive: -1.3%. In the case of `Cc1c(Cl)cccc1NC(=O)CN1C(=O)c2ccccc2Sc2ncccc21`, the “activity change, negative = inhibition” value is inactive: -27.1%.

Regarding `Cc1ccc(-c2c(CN3CCN(c4cc(Cl)ccc4C)CC3)csc2C)cc1`, the “activity change, negative = inhibition” value was inactive: -9.64%. As for `CC(=O)N1CCc2c(sc3c2c(=O)n(-c2ccccc2Cl)c(=O)n3C)C1`, the “activity change, negative = inhibition” value was inactive: 17.2%. As for `O=C(CSc1nc2ccccc2n1CC(=O)Nc1ccc(F)cc1F)Nc1ccc(F)cc1`, the “activity change, negative = inhibition” value was inactive: -20.2%. For the compound `CCOc1ccc2c(c1)c(=O)c(S(=O)(=O)c1ccc(C)cc1)cn2CC(=O)Nc1ccc(C)cc1`, the “activity change, negative = inhibition” value was inactive: -23.4%. The figure for `COc1ccc(-n2c(SCc3nc(-c4ccc(C)cc4)no3)nnc2-c2ccncc2)cc1` is inactive: -28.1%. For the compound `COCCCN1CCc2nc(SCC(=O)Nc3ccc(C)c(Cl)c3)[nH]c(=O)c2C1`, the “activity change, negative = inhibition” value was inactive: -11%. Regarding `CCn1c(=O)c2cc(C(=O)NCCc3cccc(C)c3)sc2c2ccccc21`, the “activity change, negative = inhibition” value was inactive: 2.01%. Regarding `COc1ccccc1OCCn1c(NC(=O)c2ccccc2)nc2ccccc21`, the “activity change, negative = inhibition” value is inactive: 6.93%. Turning to `Cc1ccc(NC(=O)C2CCN(c3ncccn3)CC2)cc1F`, the “activity change, negative = inhibition” value is inactive: -2.97%. `CCc1cc2cc(OC)c(OC)cc2c(Cc2ccccc2)n1`: the “activity change, negative = inhibition” value is inactive: -1.27%. `CCOc1ccccc1NC(=O)C(C)n1nnc2sc3c(c2c1=O)CCCC3` (stereo not given): the “activity change, negative = inhibition” value is inactive: 4.28%. Consider `O=C(O)CNC(=O)CNC(=O)CNC(=O)CSC(=O)c1ccccc1`, for which the “activity change, negative = inhibition” value was inactive: -0.736%. Next, `CC1(C)S[C@@H]2[C@H](N=CN3CCCCCC3)C(=O)N2[C@H]1C(=O)O`: inactive: -0.401%; `Cc1ccc(CCNC(=O)c2ccc(Cn3c(=O)c4cccn4c4cccnc43)cc2)cc1`: inactive: -16.5%; `Cc1ccc(-n2c(SCC(N)=O)nc3c(oc4ccccc43)c2=O)cc1`: inactive: -29.9%. Next, `CCn1c(CNC(=O)C23CC4CC(CC(C4)C2)C3)nnc1SCC(=O)Nc1ccc(OC)cc1`: inactive: -16.3%; `O=C(O)c1cccc(NC(=O)c2cccc(S(=O)(=O)Nc3cccc(F)c3)c2)c1`: inactive: 0.256%; `Cc1ccc(N2CCN(c3nc4ccccc4n4nnnc34)CC2)c(C)c1`: inactive: 16%. The figure for `COc1cccc(C(=O)Nc2ccccc2SCc2cc(=O)c3cccc(C)c3[nH]2)c1` is inactive: 5.48%. Turning to `Cc1cc(C)cc(NC(=O)c2cc(S(=O)(=O)N3CCOCC3)cn2C)c1`, the “activity change, negative = inhibition” value was inactive: -2.02%. The figure for `Cc1ccc(Cl)cc1N1CCN(C(=O)c2cnn(-c3ccc(Cl)cc3)c2C2CCNCC2)CC1` is inactive: -23.1%; for `N#Cc1c[nH]n2c(NC3CCCC3)c(-c3ccc(Br)cc3)nc12` it is inactive: -28.6%; for `CCOc1ccc(C2c3c(oc4ccccc4c3=O)C(=O)N2Cc2ccc3c(c2)OCO3)cc1` (stereo not given) it is inactive: -7.71%. Turning to `Cc1ccc(Nc2c(-c3ccc(N4CCOCC4)cc3)nc3ccc(Cl)cn23)cc1`, the “activity change, negative = inhibition” value was inactive: 7.65%. Take `Cc1cc2c(cc1S(=O)(=O)N1CCC(C(N)=O)CC1)OCC(=O)N2`: the “activity change, negative = inhibition” value was inactive: 6.56%. As to `Cc1cc(C)c(NC(=O)Cn2nnc(-c3nc(-c4ccncc4)no3)c2N)c(C)c1`, the “activity change, negative = inhibition” value was inactive: -0.941%. Next, `O=C(CSc1nc2c([nH]c3ccccc32)c(=O)n1-c1cccc(C(F)(F)F)c1)N1CCCC1`: inactive: -10.9%; `CCOC(=O)c1cccc(NC(=O)C2(S(=O)(=O)c3ccc(C)cc3)CC2)c1`: inactive: -0.7%; `COc1cn(CC(=O)Nc2ccc(C)cc2C)c(CN2CCCCC2)cc1=O`: inactive: -19.8%.

Turning to `COc1cccc(C(=O)Nc2ccc(-c3nc4ccc(C)cc4s3)cc2)c1OC`, the “activity change, negative = inhibition” value was inactive: 1.46%. On to `CCOc1cccc(C2c3c(oc4ccc(F)cc4c3=O)C(=O)N2CCOC)c1` (stereo not given), for which the “activity change, negative = inhibition” value is inactive: -1%. For `CCCNC(=O)C1CCC(Cn2c(=O)c3sccc3n(CC(=O)N3CCCC(C)C3)c2=O)CC1` (stereo not given), the “activity change, negative = inhibition” value is inactive: 7.24%. As for `CC(=O)C1=C(c2ccc(C)cc2)N(C(C)=O)n2c(nnc2-c2ccccc2)S1`, the “activity change, negative = inhibition” value is inactive: -10.3%.

As for `COc1ccc(S(=O)(=O)NCC(c2ccc(N(C)C)cc2)N2CCCC2)cc1F` (stereo not given), the “activity change, negative = inhibition” value is inactive: -8.03%.

`Cc1ccc(Cl)cc1N1CCN(S(=O)(=O)c2ccc3oc(=O)c4ncn(C)c4c3c2)CC1`: the “activity change, negative = inhibition” value was inactive: -7.61%.

For the origin of these results see PubChem BioAssay AID1508623 (National Center for Advancing Translational Sciences (NCATS), 2021).
